Assay in all cases: ALDHbr (CSC) cell proportion score relative to DMSO vehicle (ratio to DMSO); breast (SUM159) / gastric (MKN45) / pancreatic (PANC1) / colon cancer lines; ALDHbr cells have high ALDH activity and are rich in cancer stem cells (CSC); higher = more CSC (ALDHbr) cells remaining
Conditions in all cases: 10 µM; 72 h

The subject of experiment [1] is MKN45.
In experiment [2] the test system is PANC1.
Experiment [3] has as its system SUM159.
Experiment [4] deals with T84.

In the supplement of paper PMC11880418 one finds ALDHbr data, which are given here for 28 molecules.

SMILES strings stand for the structures. Counter-ions that a name gives are not always drawn. This is one part of the list. The data scatter; read single values as rough.
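Also: High-content imaging of ALDEFLUOR-stained cells with Hoechst-labelled nuclei in 384-well plates, triplicate wells, scored as Z-score against 0.1% DMSO vehicle, negative meaning fewer ALDHbr cells.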

On to `COCCCC/C(=N\OCCN)c1ccc(C(F)(F)F)cc1` [Fluvoxamine maleate], for which the ALDHbr came out at 0.736 in experiment [1], 0.829 in experiment [2], 0.873 in experiment [3] and 0.855 in experiment [4].
For `Nc1nc(CC(=O)Nc2ccc(CCNC[C@H](O)c3ccccc3)cc2)cs1` [Mirabegron], in that order: 1.01, 0.838, 2.25 and 0.916.
For `CS(=O)(=O)c1ccc(C2=C(c3ccccc3)C(=O)OC2)cc1` [Rofecoxib], in that order: 1.08, 0.929, 1.45 and 1.15.
For `Cc1c(N)c(=O)n(-c2ccccc2)n1C` [Ampyrone], in that order: 0.874, 0.737, 1.14 and 0.795.
As for `CCCCN1CCCCC1C(=O)Nc1c(C)cccc1C` (configuration not stated) [Bupivacaine hydrochloride], the ALDHbr in experiment [1] worked out at 1.08; in experiment [2], 0.882; in experiment [3], 1.04; in experiment [4], 1.07.
For `NC(N)=Nc1nc(CSCC/C(N)=N/S(N)(=O)=O)cs1` [Famotidine], in that order: 0.978, 0.741, 1.02 and 0.846.
For `COc1ccc(Cl)cc1C(=O)NCCc1ccc(S(=O)(=O)NC(=O)NC2CCCCC2)cc1` [Glibenclamide], in that order: 1.25, 0.841, 1.68 and 1.03.
Regarding `Cc1ccccc1N1C(=O)c2cc(S(N)(=O)=O)c(Cl)cc2NC1C` (configuration not stated) [Metolazone], the ALDHbr in experiment [1] is 0.841; in experiment [2] it was 0.782; in experiment [3] it was 0.902; in experiment [4], 0.844.
`NC(=O)NC1NC(=O)NC1=O` (configuration not stated) [Allantoin]: the ALDHbr in experiment [1] is 0.945; in experiment [2] it was 0.858; in experiment [3] it was 0.991; in experiment [4], 1.
Taken in the same sequence, the figures for `COc1cc(NS(=O)(=O)c2ccc(N)cc2)ncn1` [Sulfamonomethoxine] were 0.766, 1.01, 0.983 and 0.971.
Taken in the same sequence, the figures for `CC(C)(C(=O)c1cccnc1)c1cccnc1` [Metyrapone] were 0.901, 0.93, 1.18 and 0.923.
For `Cc1ccccc1C(OCCN(C)C)c1ccccc1` (configuration not stated) [Orphenadrine hydrochloride], in that order: 1.28, 1.04, 0.812 and 0.888.
With `COc1ccc(CN(CCN(C)C)c2ccccn2)cc1` [Pyrilamine maleate], the ALDHbr was found to be 1.02 in experiment [1], 0.831 in experiment [2], 0.868 in experiment [3] and 0.922 in experiment [4].
For `CC(=O)Oc1ccccc1C(=O)Nc1ncc([N+](=O)[O-])s1` [Nitazoxanide], in that order: 0.73, 1.05, 1.03 and 0.729.
Taken in the same sequence, the figures for `COc1cc(Cc2cnc(N)nc2N)cc(OC)c1OC` [Trimethoprim] were 1.1, 0.988, 0.934 and 0.946.
In the case of `CO[C@H]1/C=C/O[C@@]2(C)Oc3c(C)c(O)c4c(O)c(c5c(nc6cc(C)ccn65)c4c3C2=O)NC(=O)/C(C)=C\C=C\[C@H](C)[C@H](O)[C@@H](C)[C@@H](O)[C@@H](C)[C@H](OC(C)=O)[C@@H]1C` [Rifaximin], the ALDHbr in experiment [1] is 1.04; in experiment [2], 0.969; in experiment [3], 0.793; in experiment [4] it was 0.875.
Taken in the same sequence, the figures for `CCN(Cc1ccncc1)C(=O)C(CO)c1ccccc1` (configuration not stated) [Tropicamide] were 0.98, 0.972, 1.04 and 1.07.
Take `CCCN[C@H]1CCc2nc(N)sc2C1` [Pramipexole dihydrochloride]: the ALDHbr in experiment [1] is 1.16; in experiment [2], 0.929; in experiment [3], 1.29; in experiment [4] it was 0.861.
Regarding `OC(CCN1CCCCC1)(c1ccccc1)C1CCCCC1` (configuration not stated) [Trihexyphenidyl-D,L Hydrochloride], the ALDHbr in experiment [1] was 1.3; in experiment [2] it was 0.984; in experiment [3] it was 1.15; in experiment [4] it was 0.976.
Taken in the same sequence, the figures for `C[C@]1(Cn2ccnn2)[C@H](C(=O)O)N2C(=O)C[C@H]2S1(=O)=O` [Tazobactam] were 1.01, 0.923, 1.04 and 0.859.
As to `Cn1nnc2c(C(N)=O)ncn2c1=O` [Temozolomide], the ALDHbr is 1.05 in experiment [1], 0.898 in experiment [2], 1.42 in experiment [3] and 0.997 in experiment [4].
Taken in the same sequence, the figures for `CN(C)CCOC(=O)COc1ccc(Cl)cc1` [Meclofenoxate hydrochloride] were 0.865, 1.07, 1.24 and 0.925.
For `CCOC(=O)[C@H](CCc1ccccc1)N[C@H]1CCc2ccccc2N(CC(=O)O)C1=O` [Benazepril hydrochloride], in that order: 1.02, 0.931, 0.855 and 0.843.
Taken in the same sequence, the figures for `CCn1cc(C(=O)O)c(=O)c2cnc(N3CCCC3)nc21` [Piromidic acid] were 0.922, 0.918, 1.07 and 1.04.
With `COc1ccc2c(c1)c(CC(=O)OCC(=O)O)c(C)n2C(=O)c1ccc(Cl)cc1` [Acemetacin], the ALDHbr amounted to 0.957 in experiment [1], 1.02 in experiment [2], 0.924 in experiment [3] and 1.01 in experiment [4].
Taken in the same sequence, the figures for `OCCN1CCN(CCCN2c3ccccc3Sc3ccc(Cl)cc32)CC1` [Perphenazine] were 0.734, 0.807, 0.435 and 0.157.
With `CN(C)CCn1nnnc1SCC1=C(C(=O)O)N2C(=O)[C@@H](NC(=O)Cc3csc(N)n3)[C@H]2SC1` [Cefotiam hydrochloride], the ALDHbr stood at 0.994 in experiment [1], 0.899 in experiment [2], 0.835 in experiment [3] and 0.915 in experiment [4].
Take `C[C@]12CCC(=O)C=C1C=C[C@@H]1[C@@H]2CC[C@@]2(C)[C@H]1CC[C@@]21CCC(=O)O1` [Canrenone]: the ALDHbr was 0.842 in experiment [1], 0.837 in experiment [2], 1.48 in experiment [3] and 0.993 in experiment [4].
